Assay results reported in the supplement of paper PMC10126150.
Values marked as one replicate rest on one cluster of the flow cell; about a third of the high ones do not repeat.

System: ATP
Assay: switch fluorescence ratio, 500 uM ATP over buffer (Cy3 cluster intensity, sum of 5 cycles each) (fold (ratio)); higher = stronger signal-on switching upon ATP binding; sequences stand for … in TCGTCGGCAGCGTCAGATGTGTATAAGAGACAGTTTTTTTTTTTTTTTTTTTTTTTTT…TC
Conditions: aptamer strand: ATP DNA aptamer (quencher-CACCTGGGGGAGTATTGCGGAGGAAGG + anchor), 100 nM annealed; ATP concentration: 500 uM; one replicate
Outline: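 Per cluster, summed Cy3 intensity from the target cycles was divided by that from the buffer cycles to give the fluorescence ratio, then averaged per switch-domain sequence. Clusters outside 100-1000 RFU were excluded. The Cy3-labelled switching-strand clusters, on a modified Illumina MiSeq flow-cell, were annealed to 100 nM quencher-labelled ATP aptamer and imaged in selection buffer, then after 15 min with 500 uM ATP at 22 °C, for five cycles with NaOH stripping and re-annealing between them.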
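Also: ATP exposure 15 min at 22 °C before imaging.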

Row | Sequence | switch fluorescence ratio
1 | TTATTGAGTT | 1.01
2 | AAAGATAGCA | 0.992
3 | GAACTTACAA | 1.16
4 | TTTTAAATAT | 0.985
5 | GCTCCGGAGA | 1.16
6 | AATTAAAAGG | 1.02
7 | ATCTCACGCC | 1.17
8 | GTTATGTAGT | 1.01
9 | GAAATATTTG | 1.04
10 | TATACTCATG | 0.992
11 | TTTGTGGCCT | 1.02
12 | GATCAAGCCT | 1.1
13 | AACGGCTATC | 1.04
14 | CAAGGACTAG | 1.02
15 | AGTAAATGT | 1.01
16 | ACATGGCTCA | 1.01
17 | ATAACCTAAA | 1.02
18 | AACTACCTTG | 1.06
19 | TTCGAGGGAA | 1.32
20 | TTCTGTTCA | 1.03
21 | GTGACAAGAG | 0.979
22 | TATAAGCGCA | 1.02
23 | CCAATTCTCC | 2.51
24 | CGTGCAGCGA | 1.05
25 | AGGTATGTA | 0.962

Row | Sequence | switch fluorescence ratio
26 | CAGGAACTAC | 1.09
27 | AGAATTAAGT | 1.01
28 | TTGTATCGT | 0.95
29 | ACTTTAAGTT | 1.04
30 | TTGGCACCGG | 0.983
31 | AAGGCTAACC | 0.976
32 | CTCACTCTCG | 1.05
33 | CCGAGTGATC | 4.27
34 | CGGCGCCTGG | 1.03
35 | CCTGGTCTAG | 0.952
36 | TACCCGTCGG | 1.05
37 | ATGTTGAAAG | 0.989
38 | TTCGGGGATC | 0.975
39 | AGAGTTATCA | 0.999
40 | GCTCCTCCA | 1.38
41 | AATGTTGTAA | 1.03
42 | GAGCTATATA | 1.06
43 | CTATTGTTCC | 1.1
44 | CGTACCGGGG | 1.04
45 | CGGTAAAGGC | 1
46 | TTTGAGAGTC | 1.02
47 | AAAGGTTCTA | 0.972
48 | GTTTACTCAT | 1.01
49 | GGTTAATATA | 1.01
50 | TAGAGTAGAA | 0.967

Row | Sequence | switch fluorescence ratio
51 | GTTTTATAGC | 0.959
52 | AGTTTTCGCC | 1.02
53 | GATCGTAGCG | 0.973
54 | TTCTCGAATA | 1.01
55 | AAGATAAGTG | 0.963
56 | CAAATTTTGT | 1.01
57 | GGGAGACGAC | 0.99
58 | ACTTTCGTAG | 1.11
59 | GAACGCTCGA | 1.13
60 | AGCCTGTTCT | 0.971
61 | CCCCTAGGCT | 1.42
62 | GTCCTCAGTC | 1.11
63 | AGCTGTTTCT | 0.983
64 | CAACGATACG | 1.16
65 | CGCCACAGAA | 1
66 | AAGTGAGGTC | 0.981
67 | CAGGGAGCGA | 0.993
68 | TCAATCTGCG | 1.05
69 | AGCGTGGATC | 1.12
70 | AATCGGGGAA | 0.996
71 | GAGATCGTCC | 1.01
72 | CAGGAGTCGA | 1.06
73 | GACAGGTTCC | 1.1
74 | GGATTGGGAG | 1.04
75 | ATACAAGCAA | 1.52

Row | Sequence | switch fluorescence ratio
76 | AGTTCCGATG | 1.44
77 | GTCATTATCC | 1.03
78 | AATTTCCGCA | 1.56
79 | ACCGCTCAAC | 4.68
80 | ACCGGGGTCC | 1.02
81 | GGTTAACTA | 1.01
82 | GTGACAGAGT | 0.952
83 | CGCGATGACA | 1.05
84 | CTCGTAGGAG | 0.988
85 | TGATCGAGAT | 1.01
86 | CTGGAGTAGC | 1.65
87 | ATTGGCGTAC | 1.04
88 | GCACCCGTGT | 1
89 | GTTCATATAT | 0.991
90 | ACAACAGATA | 0.98
91 | ACACTGGGTA | 1.02
92 | TACCCCGAGA | 1.03
93 | CCCGCTGTCT | 1.07
94 | AATGGTGAGC | 1.01
95 | TTTTGTAGCC | 1.03
96 | CTAAAGATTG | 1.04
97 | GAAACGGTTC | 1.06
98 | GTATTCCTGT | 1.04
99 | TCTGTATTAT | 0.993
100 | TCAAGACTAG | 0.976

Row | Sequence | switch fluorescence ratio
101 | ACTCATAGGG | 1.13
102 | TACGTAAAAT | 1.04
103 | TGTGGCGCGT | 1.03
104 | CCCGTCCTAT | 1.03
105 | TCTCATTATT | 1.03
106 | ATGGGTAACC | 0.986
107 | CGGTCCTCA | 1.02
108 | TGAGGGAGTA | 0.939
109 | GGGCTTTGA | 1.01
110 | TCAGAACCAT | 1.07
111 | CTGTAAATCG | 0.95
112 | TTCTGGCCTT | 1.07
113 | ACGTATCAA | 1.14
114 | CTTCCAAAGG | 1.14
115 | AGGGAAACAC | 1.03
116 | GGATGTCCTC | 0.972
117 | TTGCTATAAG | 0.995
118 | TCTGTCCAAT | 1.06
119 | GCTCAATGTT | 1.02
120 | TTTTTCGAC | 1.02
121 | CTTTTATTGA | 1.05
122 | GGAAAGACGG | 1.06
123 | CGAGGTCTTC | 1
124 | AACGTAGTGG | 0.975
125 | AAGAAAACC | 1.82

Row | Sequence | switch fluorescence ratio
126 | GGGATCTTCT | 0.977
127 | GTGAGAGATT | 0.969
128 | TAACCCTGAG | 1.03
129 | GGTAAGATAT | 1.03
130 | GTGGCTTCGA | 0.997
131 | GTAGTGGGAG | 0.965
132 | TTCGGAACTC | 1.06
133 | TCTGAGTTTC | 1.02
134 | TTAAGACAAT | 1
135 | GTGATCAGCT | 0.976
136 | GGCGAGTTCG | 0.913
137 | GGTCCGAGGG | 1.04
138 | GACGGATGGT | 0.969
139 | ATCATAACGA | 1.03
140 | CTGAGTAGCT | 0.977
141 | GTTCTATCCG | 1.02
142 | TGGAGGATGT | 0.974
143 | GCAACGGTCA | 1.03
144 | GGAAGAGAAA | 1.03
145 | TATTTTAGGC | 1.04
146 | AAATTGTCAG | 1.01
147 | CAAATCCACA | 1.04
148 | AGGCCGAGTG | 0.988
149 | CGTAGAGATA | 0.991
150 | ACGCATAATC | 2.26

Row | Sequence | switch fluorescence ratio
151 | CACTACCTGT | 1.05
152 | ACGAATTGTG | 0.985
153 | GACAAAGAAT | 1.04
154 | GTCCAAAGTC | 0.971
155 | CGTCATAGTG | 0.981
156 | TCCCGTTGCA | 1.04
157 | CTCCAGACCA | 1.11
158 | TCTCTTGTTC | 0.979
159 | TCATAGGCTG | 0.987
160 | GGGGTTACTT | 1.03
161 | ATCAGATAAC | 0.947
162 | ATCCGTGCCA | 1
163 | TGAGGGTAGT | 0.985
164 | TAAAACATCG | 0.972
165 | TCTGCTGAAT | 1.04
166 | CCTAAAACCT | 1.96
167 | AGCGGAGGTA | 0.964
168 | TTAGTGTCGG | 1.02
169 | CCTTCGACC | 3.41
170 | TGTAAAAACC | 1.14
171 | TAAATGCTCA | 1
172 | ACGGGCAGGT | 1.04
173 | ATATATAGA | 0.952
174 | CGCTTCAGAT | 0.977
175 | CCGAGAATTA | 1.29

Row | Sequence | switch fluorescence ratio
176 | AGACTATGAC | 1.01
177 | TAACATAATC | 1.02
178 | GATATTGGAT | 1.01
179 | TAACCTGCTC | 1.67
180 | GACAACGACG | 1.07
181 | CAGGATGGAC | 0.994
182 | CAGATGGTCC | 1.03
183 | CCGTTATTGC | 2.24
184 | AACACCGTCG | 1
185 | GTCGTAACTT | 0.997
186 | TACGTTACAG | 1.42
187 | GTGAGCAGGT | 1.01
188 | GCGACTCTTT | 1.01
189 | CTGGTAAAGT | 0.958
190 | ACTGCTATCT | 1.16
191 | GTTTGGCTAC | 1.06
192 | TATTTGGTAC | 1.07
193 | ACCTTCTTGT | 1.11
194 | ATGATGCCTT | 1.01
195 | AGTAGGTATC | 0.989
196 | ACAGCTCCTA | 1.08
197 | GGGGCCAGGT | 1.16
198 | TTTATAAGAC | 1.12
199 | GTTTTGCCTT | 0.963
200 | ATACTTTGGG | 0.973
